Data as given in article PMC3941021 (Nature structural & molecular biology, 2013).

Molecular target: the molecule itself
Test: crystal structure

B1: lysine-methylated EphA4 ectodomain (EphA4_(ecto)), human (domain or fragment)
chain: not shown
modifications: lysine-methylated
**Q.** Does B1 bind?
**A.** binds
